According to PubChem BioAssay AID504333 (National Center for Advancing Translational Sciences (NCATS), 2011):
Screen size: about 360,000 compounds; about 16,000 (4.4%) were called active. Inconclusive means that the source gave no clear call. Such entries were picked first, then a sample of the others. Calls come from the whole dose curve; as a rule, active = well fitted inhibition curve with a large enough effect; inconclusive = small, poorly fitted or top-dose-only effect; inactive = no such curve, though single readings can be large or run the other way. Potencies of inconclusive entries are doubtful fits and often do not repeat.

These compounds were tested against Bromodomain adjacent to zinc finger domain protein 2B (Homo sapiens) (UniProt Q9UIF8) (assay: qHTS Assay for Inhibitors of BAZ2B). Conditions: AlphaScreen BAZ2B-H3K14Ac peptide displacement; series mostly up to 114 µM.
Method in brief: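 BAZ2B (50 nM) with biotin-H3(5-23)K14Ac peptide (50 nM) in PBS pH 7.4, 0.01% Tween-20, preformed 30 min, then compound 30 min at room temperature; top concentration 110uM. AlphaScreen streptavidin donor/nickel chelate acceptor beads (10 ug/mL final), 20 min dark, signal read.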
Note: nearly all actives have a fitted effect of over 60% in size.
Potency is the fitted concentration of half-maximal effect; tags give direction and shape of the fitted curve.

Sequence of UniProt Q9UIF8 (Q9UIF8 whole entry, looked up, the tested form may be a part): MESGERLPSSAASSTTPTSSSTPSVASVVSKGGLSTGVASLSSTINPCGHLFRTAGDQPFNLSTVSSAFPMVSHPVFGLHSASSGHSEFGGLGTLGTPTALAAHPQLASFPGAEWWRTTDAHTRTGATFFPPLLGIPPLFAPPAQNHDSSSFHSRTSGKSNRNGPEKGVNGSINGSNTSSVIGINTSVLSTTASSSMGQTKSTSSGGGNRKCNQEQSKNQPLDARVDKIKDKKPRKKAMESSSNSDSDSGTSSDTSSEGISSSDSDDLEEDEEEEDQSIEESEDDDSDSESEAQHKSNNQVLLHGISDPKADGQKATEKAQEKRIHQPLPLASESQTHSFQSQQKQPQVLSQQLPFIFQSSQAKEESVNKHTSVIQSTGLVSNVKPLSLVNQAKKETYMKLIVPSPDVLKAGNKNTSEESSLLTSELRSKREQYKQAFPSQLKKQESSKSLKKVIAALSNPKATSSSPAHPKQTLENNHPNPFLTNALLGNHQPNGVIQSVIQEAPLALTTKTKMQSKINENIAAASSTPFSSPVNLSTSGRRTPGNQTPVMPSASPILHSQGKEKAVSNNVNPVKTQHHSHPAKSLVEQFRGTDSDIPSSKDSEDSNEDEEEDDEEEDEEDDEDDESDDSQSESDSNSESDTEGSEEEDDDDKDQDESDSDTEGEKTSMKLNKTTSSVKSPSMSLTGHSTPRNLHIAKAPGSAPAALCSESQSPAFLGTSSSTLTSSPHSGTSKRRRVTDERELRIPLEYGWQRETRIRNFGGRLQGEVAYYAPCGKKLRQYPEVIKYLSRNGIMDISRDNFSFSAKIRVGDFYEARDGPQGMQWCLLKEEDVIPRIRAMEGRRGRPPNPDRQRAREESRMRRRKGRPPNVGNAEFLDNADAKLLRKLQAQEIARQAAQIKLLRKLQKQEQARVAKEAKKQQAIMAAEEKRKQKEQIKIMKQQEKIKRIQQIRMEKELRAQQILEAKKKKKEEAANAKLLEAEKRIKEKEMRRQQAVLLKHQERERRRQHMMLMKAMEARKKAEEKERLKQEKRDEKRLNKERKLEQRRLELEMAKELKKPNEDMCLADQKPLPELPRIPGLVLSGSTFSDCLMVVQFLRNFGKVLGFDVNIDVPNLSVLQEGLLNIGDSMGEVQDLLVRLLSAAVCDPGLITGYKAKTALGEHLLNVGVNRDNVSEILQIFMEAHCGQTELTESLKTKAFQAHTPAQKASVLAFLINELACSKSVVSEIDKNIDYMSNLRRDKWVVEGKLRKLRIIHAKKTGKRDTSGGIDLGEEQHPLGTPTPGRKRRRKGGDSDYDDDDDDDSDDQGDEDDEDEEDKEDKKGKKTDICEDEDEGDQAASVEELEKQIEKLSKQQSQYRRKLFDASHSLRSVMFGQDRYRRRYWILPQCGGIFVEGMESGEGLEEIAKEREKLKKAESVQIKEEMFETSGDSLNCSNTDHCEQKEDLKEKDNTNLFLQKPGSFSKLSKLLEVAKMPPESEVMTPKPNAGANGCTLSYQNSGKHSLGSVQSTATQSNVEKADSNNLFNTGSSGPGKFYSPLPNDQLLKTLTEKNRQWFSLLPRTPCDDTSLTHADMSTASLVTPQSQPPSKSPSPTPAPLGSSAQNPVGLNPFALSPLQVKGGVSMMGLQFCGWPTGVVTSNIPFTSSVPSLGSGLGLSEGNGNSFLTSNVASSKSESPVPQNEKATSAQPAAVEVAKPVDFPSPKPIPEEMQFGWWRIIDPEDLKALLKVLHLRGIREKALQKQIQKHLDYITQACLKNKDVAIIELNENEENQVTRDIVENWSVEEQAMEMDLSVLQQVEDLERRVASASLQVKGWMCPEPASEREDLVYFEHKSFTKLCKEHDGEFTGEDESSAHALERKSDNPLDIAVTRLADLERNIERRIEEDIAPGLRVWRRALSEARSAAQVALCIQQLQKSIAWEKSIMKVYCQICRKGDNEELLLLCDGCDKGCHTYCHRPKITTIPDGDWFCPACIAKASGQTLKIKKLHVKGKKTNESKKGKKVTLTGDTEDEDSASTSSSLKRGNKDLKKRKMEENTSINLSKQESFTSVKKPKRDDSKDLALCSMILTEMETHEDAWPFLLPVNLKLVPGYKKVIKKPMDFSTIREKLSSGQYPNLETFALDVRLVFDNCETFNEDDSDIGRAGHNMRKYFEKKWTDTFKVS

| SMILES | Potency |
| --- | --- |
| COC(=O)c1c(C)nn(-c2ccc(F)cc2)c1-n1cccc1 | inactive |
| CC(C)(C)N(Cc1ccccc1)C(=O)CSc1nnc(CNc2ccc(F)cc2)o1 | inconclusive: 50.1 µM [inhibitor, partial curve] |
| O=[N+]([O-])c1ccc(O)c(-c2nn[nH]n2)c1 | active: 2.82 µM |
| O=C(CCCN1C(=O)/C(=C\c2cccs2)SC1=S)NNC(=O)c1ccncc1 | inconclusive: 56.2 µM [inhibitor, partial curve] |
| Cc1ccc(-n2nnnc2C(Cl)(Cl)c2nnnn2-c2ccc(C)cc2)cc1 | inconclusive: 70.8 µM [inhibitor, single point] |
| COC(=O)c1ccc(-c2ccco2)n1Cc1nc(-c2ccc(OC)c(OC)c2)oc1C | inconclusive: 20 µM [inhibitor, full curve] |
| COc1ccc(/C=C/C(=O)NC(=S)Nc2cc([N+](=O)[O-])ccc2O)cc1OC | inconclusive: 39.8 µM [inhibitor, partial curve, poor fit] |
| Cc1ccc(S(=O)(=O)c2cn(Cc3ccccc3Cl)c3ccc(F)cc3c2=O)cc1 | inactive |
| CC(=O)NS(=O)(=O)c1cccnc1Nc1ccc(Cl)c(Cl)c1 | inactive |
| O=C(c1ccc(C(F)(F)F)cc1)N1CCC(=O)N(C(COCc2ccc(C(F)(F)F)cc2)Cc2ccccc2)CC1 (stereo not given) | inconclusive: 89.1 µM [inhibitor, partial curve] |
| CCOC(=O)c1c(N)sc2c1CCCC2 | inconclusive: 79.4 µM [inhibitor, single point] |
| O=C(O)c1cccc(NC(=O)c2ccc3c(c2)C(=O)N(Cc2ccco2)C3=O)c1 | inconclusive: 89.1 µM [inhibitor, single point] |
| O=C(O)c1cc(NN=C2c3ccccc3-c3ccccc32)ccc1Cl | inconclusive: 50.1 µM [inhibitor, partial curve] |
| Nc1ccccc1S(=O)(=O)NCCCCc1ccccc1 | inactive |
| Cc1ccc(C)c(N2CCN(Cc3csc(C)c3)CC2)c1 | inconclusive: 89.1 µM [inhibitor, single point] |
| O=c1cc(CO)oc(CN2CCCC2)c1O | inconclusive: 89.1 µM [inhibitor, single point] |
| COc1cccc(C(=O)NC(=S)Nc2ccccc2N2CCCC2)c1 | active: 28.2 µM |
| COc1cccc2cc(C(=O)NNC(=O)c3ccc(Br)cc3)c(=O)oc12 | inactive |
| CCCCNc1c2c(nc3c(-c4ccccc4)c(C)nn13)CCC2 | inconclusive: 5.01 µM [inhibitor, full curve] |
| CC(C)(C)c1cc(N)n(-c2ccc(C(=O)O)cc2)n1 | inconclusive: 89.1 µM [inhibitor, partial curve] |
